Test results published in the supplement of paper PMC3334620.
Whole data set: some 33,000 sequences, median “E-score (-0.5 to 0.5)” near -0.021, cut for the highest 2% near 0.32. The list shows a part of the results.

Target: T1, Zap1 (UniProt P47043)
T1 sequence: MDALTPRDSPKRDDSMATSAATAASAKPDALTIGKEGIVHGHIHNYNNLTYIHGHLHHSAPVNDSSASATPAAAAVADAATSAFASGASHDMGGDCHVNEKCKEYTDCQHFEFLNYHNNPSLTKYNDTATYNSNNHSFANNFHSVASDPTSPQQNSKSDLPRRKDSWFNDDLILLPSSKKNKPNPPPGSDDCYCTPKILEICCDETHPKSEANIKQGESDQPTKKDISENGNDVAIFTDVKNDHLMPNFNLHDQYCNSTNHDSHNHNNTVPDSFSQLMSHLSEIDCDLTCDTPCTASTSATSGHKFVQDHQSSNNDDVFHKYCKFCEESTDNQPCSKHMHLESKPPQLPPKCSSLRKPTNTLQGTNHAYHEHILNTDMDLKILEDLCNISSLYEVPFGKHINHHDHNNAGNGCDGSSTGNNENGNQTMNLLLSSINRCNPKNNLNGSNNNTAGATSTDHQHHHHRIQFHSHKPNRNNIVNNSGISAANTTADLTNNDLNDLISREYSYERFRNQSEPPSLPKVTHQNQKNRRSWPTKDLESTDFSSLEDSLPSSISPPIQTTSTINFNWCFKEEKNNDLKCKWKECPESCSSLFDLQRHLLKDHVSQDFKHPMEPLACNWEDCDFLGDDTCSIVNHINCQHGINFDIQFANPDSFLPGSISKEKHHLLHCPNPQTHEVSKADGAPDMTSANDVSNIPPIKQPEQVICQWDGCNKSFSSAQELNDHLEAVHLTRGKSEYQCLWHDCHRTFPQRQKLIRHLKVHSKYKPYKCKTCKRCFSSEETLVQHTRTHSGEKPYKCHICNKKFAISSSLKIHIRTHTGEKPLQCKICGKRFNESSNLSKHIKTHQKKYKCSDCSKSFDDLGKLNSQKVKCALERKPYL
Test: PBM E-score (8-mer binding enrichment) (E-score (-0.5 to 0.5)); higher = stronger / more preferred TF binding; most listed sequences are background and not binding sites
Details: protein concentration: 200 nM; construct: GST-full length
Method in brief: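 Bound GST-tagged yeast transcription factors, applied at about 100-200 nM to double-stranded universal all-10-mer Agilent arrays, were detected with fluorescent anti-GST. Scans were normalised with masliner. A modified Wilcoxon-Mann-Whitney statistic, the E-score, was assigned to each ungapped eight-base word pooled with its reverse complement by the Universal PBM Analysis Suite.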

Sequence	PBM E-score
CACGTTCG	-0.38
CTAGGAGA	-0.238
AACCGCGT	0.227
ATACAAAC	0.117
GTACTTAA	0.0401
CACAGGTC	0.0872
ATAGGCCG	-0.136
CGTTGCCC	-0.259
GAATTGGA	0.183
CCCCTAAG	0.158
CACGTAGC	-0.287
CATGAACC	0.149
TTAATAAA	0.263
TGACTCCA	-0.32
GTAATGGA	0.134
GACCATGC	-0.0365
AAGACTTC	-0.202
ACTCCTGG	-0.119
CCGATACG	0.0138
CCGTCAGG	0.146
AGCCTGCC	-0.319
GGCGCCGA	-0.146
AACGAACA	0.141
CAACGTCA	-0.18
TCCAAAAA	0.138

Sequence	PBM E-score
GAGACCGA	-0.14
ATAAGCCG	-0.0833
TCAAGTAA	0.109
CTTAAATC	0.0446
GCGTTCAA	0.0881
CTCGTTCA	-0.00018
ATCCCAGG	-0.149
CCAGTTAC	-0.0945
TGGCAAAA	-0.031
CCTAAAAA	0.179
ACCAGACT	0.138
ATTTGTGG	0.259
ACAATTAT	0.0878
ACGAAGTG	0.0434
ACAGCCTA	0.129
ATCAACTG	-0.0175
AAGAGGTC	0.249
GCCGTTAA	0.126
ACATAGCG	-0.0801
CTTTGCAC	0.148
CAGGAGAC	-0.178
GCATCCTA	-0.093
AGTCCGTA	-0.0946
GAAGAGCC	-0.201
CCCCTATC	-0.169

Sequence	PBM E-score
ACCGCACG	0.0756
ACTCGCAC	-0.129
ATATAGTG	0.113
CAATTGCG	-0.0256
GTTCACTA	0.179
CCCGTCGG	0.0165
AATGTTCC	-0.116
AGGTCATC	0.373
GCCCCAAC	0.147
ACCCTGAC	0.335
ATTCGTCA	-0.154
GGATCTGA	-0.194
CCTTAGGC	-0.221
AGTGTGCG	-0.187
AGTATCTA	0.0908
ATGGTGTC	-0.064
ACGATTCC	-0.169
CAATGGGA	-0.162
GTTATTGA	0.279
ATGGTATC	0.183
CGCCTAGA	-0.164
CATAGGCA	-0.303
TCCCCGAA	-0.153
GGTCCTAA	0.13
GGGAAGTA	-0.0289

Sequence	PBM E-score
CCGCTGTA	-0.00971
CGCCCACG	-0.147
ACGACTCA	-0.287
CAATCGCA	0.0279
ATGGGCCG	-0.0792
TTAATTAA	-0.0493
GTCACTTA	0.278
GACGCATC	-0.128
AAGATTAT	-0.0645
CCGGGTCC	0.0968
TAATACAA	0.176
AATTTAGA	0.0825
GATTATTA	0.122
TTCTACAA	0.121
GTTGCAGA	0.173
TCCCTTAA	0.0619
TAGGTATA	0.254
AAATATGC	-0.169
CCGTATTA	0.227
GAATGGAC	0.0207
CCAACCGC	0.0172
AAATCCCA	0.0646
GGTGGCTA	-0.0361
TCCGCCCA	-0.206
AGCTGTGA	-0.0637

Sequence	PBM E-score
CTTTAGTA	0.117
AGAATGAT	0.0314
CAATAGTA	0.12
AAGTACTC	-0.171
AAATCCAG	0.0865
GTTCGTAA	0.135
GTTGTCCA	0.0758
GACCAGGC	-0.109
ACGCTTAT	-0.181
GTGCAGAA	-0.136
AGATTAGC	-0.146
AGAGACAG	-0.0449
GCAGAGCA	-0.303
AAGGTCAA	0.279
AACTCCAC	-0.127
CTTGCGAC	-0.127
ATAGGGTA	0.38
GAGTCCTA	-0.0209
CTAGGATC	-0.157
TAATTCCA	-0.00365
ATTTGGAA	0.0827
GCTTAACA	-0.0361
ATCGAGCC	-0.185
CGGCCCCA	-0.0836
TAGTGGAA	-0.0841

Sequence	PBM E-score
CTCACATA	0.145
TCGGTGCA	-0.136
CATGCATA	-0.0182
TGAAGGCA	-0.0983
CCGGCAGA	-0.245
CGGCGATC	-0.0265
GCGCCGGA	-0.0658
AAAGGTTC	0.293
TCAGTGCA	-0.168
AAGGGAAG	-0.134
AGAATACG	-0.0561
CTTGGTCC	-0.0749
CACAACAG	-0.0136
GAACACAC	-0.0774
AACCGGGA	0.133
CAGCAGGA	-0.153
CAAATCCG	-0.188
CAATGGTC	0.0798
AAGGTGTA	0.0926
CACTGCCA	-0.0495
AAAGCATT	-0.0743
CCATGCAA	0.00015
ACTGGCTG	-0.244
GCGACTAC	-0.0318
ACAACTCC	-0.0349

Sequence	PBM E-score
AACCCAGT	0.181
GGGGGACC	-0.0852
CGATCTAA	-0.0485
CTGCTTCC	-0.292
CTATACGC	-0.131
AGAAGTTC	-0.218
ATAATGGC	0.0492
GTCGAAAA	0.112
CAGTCCCA	-0.119
AATGCTCC	-0.335
AGCCTGGG	-0.0627
CAACCTAG	0.0544
ATCCGGGG	-0.0183
TAAAACTA	0.146
TGGCGACA	-0.121
AATTAACA	0.12
CCTTAACC	0.438
AATTGACG	-0.147
CGGATACA	-0.0534
CATGGCCA	0.207
GATTAGGC	-0.0423
ACGATTAC	0.00152
